Test results as given in the supplement of paper PMC12230231.
± gives the standard deviation of the averaged measurements. Restriction of a single-cycle SIVsab GFP reporter by TRIM5α v1-loop variants in CRFK cells. Human variants: read share among cells still uninfected after two challenges over input, higher = gained restriction. Rhesus variants: share among infected cells over input, higher = lost restriction. Reporter dose not given per row. No active / inactive call per row; the paper calls a change when both replicates lie above its controls (mean + 2 SD of stop or wild-type variants, or the top frameshift score). Residues outside the varied loop are taken from Swiss-Prot. The paper reads the human single-substitution scores as noise; they and the rhesus combinations repeat poorly (rank correlation 0.3 to 0.4), indel scores repeat only for the top variants, rhesus substitutions well (0.9).

tested on: SIVsab (simian immunodeficiency virus of sabaeus monkeys), single-cycle GFP reporter, in CRFK cells; test: enrichment among uninfected cells over input (fold); higher = stronger restriction; details: library: human / rhesus combinations
Procedure: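 Pools of CRFK cells expressing variants of the TRIM5α v1 loop were challenged with the single-cycle reporter, sorted by GFP and sequenced; mean of two replicates.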

| Sequence | enrichment |
| --- | --- |
| MASGILVNVKEEVTCPICLELLTQPLSLDCGHSFCQACLTANHKKSMLDKGESSCPVCRISYQPENIRPNRHVANIVEKLREVKLSPEGQKVDHCARHGEKLLLFCQEDGKVICWLCERSQEHRGHHTFLTEEVAREYQVKLQAALEMLRQKQQEAEELEADIREEKASWKTQIQYDKTNVLADFEQLRDILDWEESNELQNLEKEEEDILKSLTNSETEMVQQTQSLRELISDLEHRLQGSVMELLQGVDGVIKRTENVTLKKPETFPKNQRRVFRAPDLKGMLEVFRELTDVRRYWVDVTVAPNNISCAVISEDKRQVSSPKPQIIYQARGTLYPSLVNFNYCTGILGSQSITSGKHYWEVDVSKKTAWILGVCAGFQPDAMCNIEKNENYQPKYGYWVIGLEEGVKCSAFQDSSFHTPSVPFIVPLSVIICPDRVGVFLDYEACTVSFFNITNHGFLIYKFSHCSFSQPVFPYLNPRKCGVPMTLCSPSS [human TRIM5α, 330-340 = QARGTLYPSLV] | 0.197 ± 0.28 |
| MASGILVNVKEEVTCPICLELLTQPLSLDCGHSFCQACLTANHKKSMLDKGESSCPVCRISYQPENIRPNRHVANIVEKLREVKLSPEGQKVDHCARHGEKLLLFCQEDGKVICWLCERSQEHRGHHTFLTEEVAREYQVKLQAALEMLRQKQQEAEELEADIREEKASWKTQIQYDKTNVLADFEQLRDILDWEESNELQNLEKEEEDILKSLTNSETEMVQQTQSLRELISDLEHRLQGSVMELLQGVDGVIKRTENVTLKKPETFPKNQRRVFRAPDLKGMLEVFRELTDVRRYWVDVTVAPNNISCAVISEDKRQVSSPKPQIIYGARGTRYTFQTFTNFNYCTGILGSQSITSGKHYWEVDVSKKTAWILGVCAGFQPDAMCNIEKNENYQPKYGYWVIGLEEGVKCSAFQDSSFHTPSVPFIVPLSVIICPDRVGVFLDYEACTVSFFNITNHGFLIYKFSHCSFSQPVFPYLNPRKCGVPMTLCSPSS [human TRIM5α, 330-340 = GARGTRYTFQTFT] | 0.636 ± 0.24 |
| MASGILVNVKEEVTCPICLELLTQPLSLDCGHSFCQACLTANHKKSMLDKGESSCPVCRISYQPENIRPNRHVANIVEKLREVKLSPEGQKVDHCARHGEKLLLFCQEDGKVICWLCERSQEHRGHHTFLTEEVAREYQVKLQAALEMLRQKQQEAEELEADIREEKASWKTQIQYDKTNVLADFEQLRDILDWEESNELQNLEKEEEDILKSLTNSETEMVQQTQSLRELISDLEHRLQGSVMELLQGVDGVIKRTENVTLKKPETFPKNQRRVFRAPDLKGMLEVFRELTDVRRYWVDVTVAPNNISCAVISEDKRQVSSPKPQIIYQARGTRYTFPSFTNFNYCTGILGSQSITSGKHYWEVDVSKKTAWILGVCAGFQPDAMCNIEKNENYQPKYGYWVIGLEEGVKCSAFQDSSFHTPSVPFIVPLSVIICPDRVGVFLDYEACTVSFFNITNHGFLIYKFSHCSFSQPVFPYLNPRKCGVPMTLCSPSS [human TRIM5α, 330-340 = QARGTRYTFPSFT] | 0.258 ± 0.069 |
| MASGILVNVKEEVTCPICLELLTQPLSLDCGHSFCQACLTANHKKSMLDKGESSCPVCRISYQPENIRPNRHVANIVEKLREVKLSPEGQKVDHCARHGEKLLLFCQEDGKVICWLCERSQEHRGHHTFLTEEVAREYQVKLQAALEMLRQKQQEAEELEADIREEKASWKTQIQYDKTNVLADFEQLRDILDWEESNELQNLEKEEEDILKSLTNSETEMVQQTQSLRELISDLEHRLQGSVMELLQGVDGVIKRTENVTLKKPETFPKNQRRVFRAPDLKGMLEVFRELTDVRRYWVDVTVAPNNISCAVISEDKRQVSSPKPQIIYQAPGTRYTFQTFVNFNYCTGILGSQSITSGKHYWEVDVSKKTAWILGVCAGFQPDAMCNIEKNENYQPKYGYWVIGLEEGVKCSAFQDSSFHTPSVPFIVPLSVIICPDRVGVFLDYEACTVSFFNITNHGFLIYKFSHCSFSQPVFPYLNPRKCGVPMTLCSPSS [human TRIM5α, 330-340 = QAPGTRYTFQTFV] | 0.197 ± 0.047 |
| MASGILVNVKEEVTCPICLELLTQPLSLDCGHSFCQACLTANHKKSMLDKGESSCPVCRISYQPENIRPNRHVANIVEKLREVKLSPEGQKVDHCARHGEKLLLFCQEDGKVICWLCERSQEHRGHHTFLTEEVAREYQVKLQAALEMLRQKQQEAEELEADIREEKASWKTQIQYDKTNVLADFEQLRDILDWEESNELQNLEKEEEDILKSLTNSETEMVQQTQSLRELISDLEHRLQGSVMELLQGVDGVIKRTENVTLKKPETFPKNQRRVFRAPDLKGMLEVFRELTDVRRYWVDVTVAPNNISCAVISEDKRQVSSPKPQIIYGAPGTRYTFQSFVNFNYCTGILGSQSITSGKHYWEVDVSKKTAWILGVCAGFQPDAMCNIEKNENYQPKYGYWVIGLEEGVKCSAFQDSSFHTPSVPFIVPLSVIICPDRVGVFLDYEACTVSFFNITNHGFLIYKFSHCSFSQPVFPYLNPRKCGVPMTLCSPSS [human TRIM5α, 330-340 = GAPGTRYTFQSFV] | 0.226 ± 0.096 |

same assay, conditions: library: insertions and deletions

| Sequence | enrichment |
| --- | --- |
| MASGILVNVKEEVTCPICLELLTQPLSLDCGHSFCQACLTANHKKSMLDKGESSCPVCRISYQPENIRPNRHVANIVEKLREVKLSPEGQKVDHCARHGEKLLLFCQEDGKVICWLCERSQEHRGHHTFLTEEVAREYQVKLQAALEMLRQKQQEAEELEADIREEKASWKTQIQYDKTNVLADFEQLRDILDWEESNELQNLEKEEEDILKSLTNSETEMVQQTQSLRELISDLEHRLQGSVMELLQGVDGVIKRTENVTLKKPETFPKNQRRVFRAPDLKGMLEVFRELTDVRRYWVDVTVAPNNISCAVISEDKRQVSSPKPQIIYGARGQTFVNFNYCTGILGSQSITSGKHYWEVDVSKKTAWILGVCAGFQPDAMCNIEKNENYQPKYGYWVIGLEEGVKCSAFQDSSFHTPSVPFIVPLSVIICPDRVGVFLDYEACTVSFFNITNHGFLIYKFSHCSFSQPVFPYLNPRKCGVPMTLCSPSS [human TRIM5α, 3-codon deletion at 334] | 0.916 ± 0.075 |
| MASGILVNVKEEVTCPICLELLTQPLSLDCGHSFCQACLTANHKKSMLDKGESSCPVCRISYQPENIRPNRHVANIVEKLREVKLSPEGQKVDHCARHGEKLLLFCQEDGKVICWLCERSQEHRGHHTFLTEEVAREYQVKLQAALEMLRQKQQEAEELEADIREEKASWKTQIQYDKTNVLADFEQLRDILDWEESNELQNLEKEEEDILKSLTNSETEMVQQTQSLRELISDLEHRLQGSVMELLQGVDGVIKRTENVTLKKPETFPKNQRRVFRAPDLKGMLEVFRELTDVRRYWVDVTVAPNNISCAVISEDKRQVSSPKPQIIYGARGTRYCTGILGSQSITSGKHYWEVDVSKKTAWILGVCAGFQPDAMCNIEKNENYQPKYGYWVIGLEEGVKCSAFQDSSFHTPSVPFIVPLSVIICPDRVGVFLDYEACTVSFFNITNHGFLIYKFSHCSFSQPVFPYLNPRKCGVPMTLCSPSS [human TRIM5α, 8-codon deletion at 337] | 0.405 ± 0.087 |
| MASGILVNVKEEVTCPICLELLTQPLSLDCGHSFCQACLTANHKKSMLDKGESSCPVCRISYQPENIRPNRHVANIVEKLREVKLSPEGQKVDHCARHGEKLLLFCQEDGKVICWLCERSQEHRGHHTFLTEEVAREYQVKLQAALEMLRQKQQEAEELEADIREEKASWKTQIQYDKTNVLADFEQLRDILDWEESNELQNLEKEEEDILKSLTNSETEMVQQTQSLRELISDLEHRLQGSVMELLQGVDGVIKRTENVTLKKPETFPKNQRRVFRAPDLKGMLEVFRELTDVRRYWVDVTVAPNNISCAVISEDKRQVSSPKPQIIGARGTRYQTFVNFNYCTGILGSQSITSGKHYWEVDVSKKTAWILGVCAGFQPDAMCNIEKNENYQPKYGYWVIGLEEGVKCSAFQDSSFHTPSVPFIVPLSVIICPDRVGVFLDYEACTVSFFNITNHGFLIYKFSHCSFSQPVFPYLNPRKCGVPMTLCSPSS [human TRIM5α, 1-codon deletion at 329] | 0.706 ± 0.27 |
| MASGILVNVKEEVTCPICLELLTQPLSLDCGHSFCQACLTANHKKSMLDKGESSCPVCRISYQPENIRPNRHVANIVEKLREVKLSPEGQKVDHCARHGEKLLLFCQEDGKVICWLCERSQEHRGHHTFLTEEVAREYQVKLQAALEMLRQKQQEAEELEADIREEKASWKTQIQYDKTNVLADFEQLRDILDWEESNELQNLEKEEEDILKSLTNSETEMVQQTQSLRELISDLEHRLQGSVMELLQGVDGVIKRTENVTLKKPETFPKNQRRVFRAPDLKGMLEVFRELTDVRRYWVDVTVAPNNISCAVISEDKRQVSSPKPQIIYGARGTRYQTFVNFNCTGILGSQSITSGKHYWEVDVSKKTAWILGVCAGFQPDAMCNIEKNENYQPKYGYWVIGLEEGVKCSAFQDSSFHTPSVPFIVPLSVIICPDRVGVFLDYEACTVSFFNITNHGFLIYKFSHCSFSQPVFPYLNPRKCGVPMTLCSPSS [human TRIM5α, 1-codon deletion at 344] | 0.613 ± 0.036 |
| MASGILVNVKEEVTCPICLELLTQPLSLDCGHSFCQACLTANHKKSMLDKGESSCPVCRISYQPENIRPNRHVANIVEKLREVKLSPEGQKVDHCARHGEKLLLFCQEDGKVICWLCERSQEHRGHHTFLTEEVAREYQVKLQAALEMLRQKQQEAEELEADIREEKASWKTQIQYDKTNVLADFEQLRDILDWEESNELQNLEKEEEDILKSLTNSETEMVQQTQSLRELISDLEHRLQGSVMELLQGVDGVIKRTENVTLKKPETFPKNQRRVFRAPDLKGMLEVFRELTDVRRYWVDVTVAPNNISCAVISEDKRQVSSPKPQIIYGARGTRYQFNYCTGILGSQSITSGKHYWEVDVSKKTAWILGVCAGFQPDAMCNIEKNENYQPKYGYWVIGLEEGVKCSAFQDSSFHTPSVPFIVPLSVIICPDRVGVFLDYEACTVSFFNITNHGFLIYKFSHCSFSQPVFPYLNPRKCGVPMTLCSPSS [human TRIM5α, 4-codon deletion at 338] | 0.943 ± 0.98 |
| MASGILVNVKEEVTCPICLELLTQPLSLDCGHSFCQACLTANHKKSMLDKGESSCPVCRISYQPENIRPNRHVANIVEKLREVKLSPEGQKVDHCARHGEKLLLFCQEDGKVICWLCERSQEHRGHHTFLTEEVAREYQVKLQAALEMLRQKQQEAEELEADIREEKASWKTQIQYDKTNVLADFEQLRDILDWEESNELQNLEKEEEDILKSLTNSETEMVQQTQSLRELISDLEHRLQGSVMELLQGVDGVIKRTENVTLKKPETFPKNQRRVFRAPDLKGMLEVFRELTDVRRYWVDVTVAPNNISCAVISEDKRQVSSPKPQIIYGARGTRYQTFVNFNQTFVNFNYCTGILGSQSITSGKHYWEVDVSKKTAWILGVCAGFQPDAMCNIEKNENYQPKYGYWVIGLEEGVKCSAFQDSSFHTPSVPFIVPLSVIICPDRVGVFLDYEACTVSFFNITNHGFLIYKFSHCSFSQPVFPYLNPRKCGVPMTLCSPSS [human TRIM5α, 7-codon duplication at 337] | 0.649 ± 0.57 |
| MASGILVNVKEEVTCPICLELLTQPLSLDCGHSFCQACLTANHKKSMLDKGESSCPVCRISYQPENIRPNRHVANIVEKLREVKLSPEGQKVDHCARHGEKLLLFCQEDGKVICWLCERSQEHRGHHTFLTEEVAREYQVKLQAALEMLRQKQQEAEELEADIREEKASWKTQIQYDKTNVLADFEQLRDILDWEESNELQNLEKEEEDILKSLTNSETEMVQQTQSLRELISDLEHRLQGSVMELLQGVDGVIKRTENVTLKKPETFPKNQRRVFRAPDLKGMLEVFRELTDVRRYWVDVTVAPNNISCAVISEDKRQVSSPKPQIIYGARGTRYQYGARGTRYQTFVNFNYCTGILGSQSITSGKHYWEVDVSKKTAWILGVCAGFQPDAMCNIEKNENYQPKYGYWVIGLEEGVKCSAFQDSSFHTPSVPFIVPLSVIICPDRVGVFLDYEACTVSFFNITNHGFLIYKFSHCSFSQPVFPYLNPRKCGVPMTLCSPSS [human TRIM5α, 9-codon duplication at 329] | 0.41 ± 0.17 |
